According to US20230128188A1 (INHIBRX, published 2023):

T1: OX40 on Jurkat/OX40 reporter cells (Promega) (UniProt P43489 29-277)
T1 sequence (looked up): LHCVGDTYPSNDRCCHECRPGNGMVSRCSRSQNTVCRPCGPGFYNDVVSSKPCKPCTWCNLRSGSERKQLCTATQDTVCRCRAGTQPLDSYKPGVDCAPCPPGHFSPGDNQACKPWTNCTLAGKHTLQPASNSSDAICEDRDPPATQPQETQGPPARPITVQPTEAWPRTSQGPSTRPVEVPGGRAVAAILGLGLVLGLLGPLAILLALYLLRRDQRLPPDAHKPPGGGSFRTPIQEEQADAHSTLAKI

T2: human OX40 (human, UniProt P43489 29-277)
T2 construct: also called TNFRSF4; CD134
T2 sequence: T1 sequence (looked up)

T3: cynomolgus monkey OX40 (cynomolgus monkey, UniProt P43489 29-277 (human entry))
T3 construct: Expressed on stably transfected CHO cells; also called cyno OX40
T3 chain: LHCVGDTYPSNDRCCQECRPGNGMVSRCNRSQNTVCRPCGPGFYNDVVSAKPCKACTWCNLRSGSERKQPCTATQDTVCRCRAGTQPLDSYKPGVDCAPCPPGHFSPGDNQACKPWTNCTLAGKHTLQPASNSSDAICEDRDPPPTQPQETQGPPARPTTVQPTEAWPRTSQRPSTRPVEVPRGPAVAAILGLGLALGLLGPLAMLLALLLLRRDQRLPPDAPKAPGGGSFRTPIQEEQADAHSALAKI

B1: hexavalent 3×1D10v1-Fc (Fc fusion)
chain: EVQLLESGGGEVQPGGSLRLSCAASGFTFSDAFMYWVRQAPGKGLEWVSSISNRGLKTAYAESVKGRFTISRDNAKNTLYLQMSSLRAEDTAVYYCSRDVDGDFRGQGTLVTVKPGGSGGSEVQLLESGGGEVQPGGSLRLSCAASGFTFSDAFMYWVRQAPGKGLEWVSSISNRGLKTAYAESVKGRFTISRDNAKNTLYLQMSSLRAEDTAVYYCSRDVDGDFRGQGTLVTVKPGGSGGSEVQLLESGGGEVQPGGSLRLSCAASGFTFSDAFMYWVRQAPGKGLEWVSSISNRGLKTAYAESVKGRFTISRDNAKNTLYLQMSSLRAEDTAVYYCSRDVDGDFRGQGTLVTVKPGGGG[human IgG1 Fc cut from this listing]
notes: also called Hex-1D10v1
B2: hexavalent 3×1D10v6-Fc (Fc fusion)
chain: B1 chain with G44E, L45R, G102A, G165E, L166R, G223A, G240S, G286E, L287R, G344A
notes: Hex-1D10v6); also called Hex-1D10v6
B3: 1D10v6-Fc (bivalent) (Fc fusion)
chain: EVQLLESGGGEVQPGGSLRLSCAASGFTFSDAFMYWVRQAPGKEREWVSSISNRGLKTAYAESVKGRFTISRDNAKNTLYLQMSSLRAEDTAVYYCSRDVDADFRGQGTLVTVKPGGGG[human IgG1 Fc cut from this listing]
notes: VHH-Fc polypeptide; also called bivalent 1D10v6-Fc
B4: 1D10v1-Fc (bivalent) (Fc fusion)
chain: B3 chain with E44G, R45L, A102G
notes: VHH-Fc polypeptide; also called bivalent sdAb 1D10v1

How the values were obtained:
[1] = target: T1, OX40 on Jurkat/OX40 reporter cells …; assay: cell-based or functional assay
human OX40 [2] = target: T2, human OX40; assay: flow cytometry on transiently transfected HEK293 freestyle cells expressing full length OX40; apparent KD
Experimental: (§1) Hexavalent anti-OX40 sdAbs were made by joining three VHH domains to an Fc, which polypeptide forms a hexavalent dimer. Nonspecific binding of hexavalent 3×1D10v1-Fc (SEQ ID NO: 8; also referred to as Hex-1D10v1) and hexavalent 3×1D10v6-Fc (SEQ ID NO: 14; also referred to as Hex-1D10v6) was determined as follows. 3×1D10v1-Fc and 3×1D10v6-Fc were incubated for 48 hours at room temperature in a buffer of 20 mM His, 150 mM NaCl, 0.02% TWEEN-20, pH 9, with untransfected HEK293 freestyle cells or with transiently transfected HEK293 freestyle cells expressing the full length OX40. A fluorescent anti-Fc specific secondary antibody was used to detect bound 3×1D10v1-Fc and 3×1D10v6-Fc, and measured by flow cytometry using an Intellicyte iQue analyzer. Mean fluorescence intensity was plotted for each concentration of antibody.

human OX40 [3] = target: T2, human OX40; assay: flow cytometry titration on transiently transfected HEK293 freestyle cells expressing full length human OX40 (sheet title: OX40+ 293)
Experimental: as §1

human OX40 [4] = target: T2, human OX40; assay: cell-based or functional assay
human OX40 [5] = target: T2, human OX40; assay: flow cytometry on CHO cells stably expressing full length human OX40
Experimental: (§2) Binding of the sdAbs to human and cynomolgus monkey OX40 was determined as follows. Stably transfected CHO cells that express full length human OX40 or cynomolgus monkey OX40 were plated at 50,000 cells/well. Antibodies were titrated serially diluted 1:3 starting at 400 nM, and detected with anti-human Fc 488 secondary antibody. Flow cytometric analysis was performed on an Intellicyte iQue analyzer and fluorescence was plotted as mean fluorescence intensity.

cynomolgus monkey OX40 [6] = target: T3, cynomolgus monkey OX40; assay: flow cytometry titration on cells expressing full length cynomolgus monkey OX40 (legend: CHO cells; sheet title: cyOX40 transfected 293s)
Experimental: as §2

human OX40 [7] = target: T2, human OX40; assay: flow cytometry titration on cells expressing full length human OX40 (legend: CHO cells; sheet title: huOX40 transfected 293s)
Experimental: as §2

cynomolgus monkey OX40 [8] = target: T3, cynomolgus monkey OX40; assay: flow cytometry on CHO cells stably expressing cynomolgus monkey OX40
Experimental: as §2

Row | Binder | EC50 (read off the curve), NFkB-luciferase reporter in Jurkat/OX40 cells [1] | Kd (concentration at 50% response), NFkB-luciferase reporter in Jurkat/OX40 cells [1] | Kd (human OX40 [2]) | EC50 (read off the curve) (human OX40 [3]) | Kd (human OX40 [5]) | EC50 (read off the curve) (cynomolgus monkey OX40 [6]) | EC50 (read off the curve) (human OX40 [7]) | Kd (cynomolgus monkey OX40 [8]) | further results
1 | B1 | ~0.05 nM | 0.0464 nM | 0.82 nM | ~0.9 nM | – | – | – | – | –
2 | B2 | ~0.05 nM | 0.044 nM | 0.9 nM | ~0.9 nM | – | – | – | – | EC50 [nM], CD4+ CD25 MFI, donor L556 (human OX40 [4]): 0.026 nM; EC50 [nM], CD4+ CD25 MFI, donor Leuko 9 (human OX40 [4]): 0.04 nM; EC50 [nM], CD4+ CD25 MFI, donor Leuko 20 (human OX40 [4]): 0.008 nM; EC50 [nM], CD4+ CD25 MFI, donor Leuko 22 (human OX40 [4]): 0.026 nM; EC50 [nM], CD4+ CD71 MFI, donor L556 (human OX40 [4]): 0.032 nM; EC50 [nM], CD4+ CD71 MFI, donor Leuko 9 (human OX40 [4]): 0.069 nM; EC50 [nM], CD4+ CD71 MFI, donor Leuko 20 (human OX40 [4]): 0.007 nM; EC50 [nM], CD4+ CD71 MFI, donor Leuko 22 (human OX40 [4]): 0.022 nM; EC50 [nM], CD4 Proliferation, donor L556 (human OX40 [4]): 0.024 nM; EC50 [nM], CD4 Proliferation, donor Leuko 9 (human OX40 [4]): 0.004 nM; EC50 [nM], CD4 Proliferation, donor Leuko 20 (human OX40 [4]): 0.008 nM; EC50 [nM], CD4 Proliferation, donor Leuko 22 (human OX40 [4]): 0.016 nM; EC50 [nM], IFNγ, donor L556 (human OX40 [4]): 0.077 nM; EC50 [nM], IFNγ, donor Leuko 9 (human OX40 [4]): 0.094 nM; EC50 [nM], IFNγ, donor Leuko 20 (human OX40 [4]): 0.019 nM; EC50 [nM], IFNγ, donor Leuko 22 (human OX40 [4]): 0.032 nM
3 | B3 | – | – | – | – | 0.81 nM | ~0.7 nM | ~0.8 nM | 0.66 nM | –
4 | B4 | – | – | – | – | 0.86 nM | ~0.8 nM | ~0.8 nM | 0.79 nM | –

Changes are numbered by the printed parent chain.
